Results as given in publication PMC4336329 (PLoS ONE, 2015).
The campaign covered roughly 310,000 compounds. About 14,000 (4.5%) showed an effect of 50% or more. Effects have a minus sign here. This is one part of the list.

The compounds below were run against human ether-à-go-go-related gene (hERG) potassium channel (human, UniProt Q12809) (assay: primary screen, population patch clamp on CHO cells stably expressing hERG).
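Also: peak tail current of the secondary pulse compared with the same well before compound.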

human ether-à-go-go-related gene (hERG) potassium channel, sequence (Q12809 whole entry, looked up): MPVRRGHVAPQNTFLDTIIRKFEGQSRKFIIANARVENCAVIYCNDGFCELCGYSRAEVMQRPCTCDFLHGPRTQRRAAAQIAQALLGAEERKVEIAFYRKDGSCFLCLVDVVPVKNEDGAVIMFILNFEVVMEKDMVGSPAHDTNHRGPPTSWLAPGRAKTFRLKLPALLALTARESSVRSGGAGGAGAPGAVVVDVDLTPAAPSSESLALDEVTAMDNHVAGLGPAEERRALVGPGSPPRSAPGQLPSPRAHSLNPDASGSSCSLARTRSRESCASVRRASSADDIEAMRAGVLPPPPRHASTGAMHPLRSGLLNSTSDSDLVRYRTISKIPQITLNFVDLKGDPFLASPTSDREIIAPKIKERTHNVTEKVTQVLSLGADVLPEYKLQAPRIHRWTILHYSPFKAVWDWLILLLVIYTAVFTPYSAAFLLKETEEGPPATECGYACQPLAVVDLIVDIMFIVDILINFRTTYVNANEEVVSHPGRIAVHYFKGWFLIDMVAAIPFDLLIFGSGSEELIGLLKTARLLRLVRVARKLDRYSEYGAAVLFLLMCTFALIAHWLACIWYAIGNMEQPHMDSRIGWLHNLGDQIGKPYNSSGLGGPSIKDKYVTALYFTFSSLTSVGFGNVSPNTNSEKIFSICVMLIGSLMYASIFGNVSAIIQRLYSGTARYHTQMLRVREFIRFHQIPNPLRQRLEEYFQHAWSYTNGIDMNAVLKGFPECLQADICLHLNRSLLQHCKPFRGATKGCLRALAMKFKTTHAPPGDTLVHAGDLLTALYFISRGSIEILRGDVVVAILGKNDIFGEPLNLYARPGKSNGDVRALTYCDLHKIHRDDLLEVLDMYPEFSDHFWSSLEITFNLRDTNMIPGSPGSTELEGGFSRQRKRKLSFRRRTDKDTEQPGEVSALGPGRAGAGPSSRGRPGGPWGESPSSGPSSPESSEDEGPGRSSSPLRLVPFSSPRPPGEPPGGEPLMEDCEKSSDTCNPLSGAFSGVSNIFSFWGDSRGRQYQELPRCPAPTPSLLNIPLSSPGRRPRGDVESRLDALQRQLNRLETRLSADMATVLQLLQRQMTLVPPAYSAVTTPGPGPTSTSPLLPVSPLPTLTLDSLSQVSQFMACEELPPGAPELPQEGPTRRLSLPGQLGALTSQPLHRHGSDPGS

SMILES	hERG current change (%, negative = inhibition) at 10uM
Cc1ccccc1-n1c(SCC(=O)NCc2cccs2)nnc1-c1ccncc1	-33.5%
Cc1c(Nc2nc(-c3cccc([N+](=O)[O-])c3)cs2)c(=O)n(-c2ccccc2)n1C	-18%
Cc1ccc(C(=O)N2CCCC(N3CCN(c4ccccc4F)CC3)C2)s1 (centres unmarked)	-18.3%
COc1ccc(OCc2cc(C(=O)N(C)C3CCOC3)no2)c(Cl)c1 (centres unmarked)	-8.91%
CC(C)CC(C(=O)NC(C)(C)C)N(CC1CCCO1)C(=O)c1snc(C(N)=O)c1N (centres unmarked)	-0.137%
Cc1ccc(NC(=S)N(C)N)cc1Cl	16.8%
Cc1noc(C)c1COc1ccc(C(=O)OCC(=O)N2c3ccccc3NC(=O)C2(C)C)cc1	2.47%
O=C(NCc1nnc(SCC(=O)N2CCc3ccccc32)o1)c1ccco1	8.27%
COc1ccc(C(=O)O/N=C2\CCCc3nonc32)cc1	37.3%
CCOC(=O)C1=C(CS(=O)(=O)c2ccc(C)cc2)NC(=O)NC1c1cc(OC)c(O)c(OC)c1 (centres unmarked)	9.12%
O=C1C2CC=CCC2C(=O)N1c1n[nH]c(Cc2ccccc2)n1 (centres unmarked)	2.31%
Cc1ccc(NC(=O)C/C(N)=N/OC(=O)Nc2cccc(C)c2)cc1	-23.2%
CCCCN(CC)S(=O)(=O)c1ccc(C(=O)Nc2nnc(-c3cccs3)o2)cc1	-8.71%
O=C1/C(=C/N(C(=O)c2ccco2)c2ccc(Cl)cc2)Sc2ccccc21	-1.02%
CCOC(=O)C1CCN(C(=O)c2ccccc2Oc2ccccc2)CC1	-16%
O=C(NCc1ccc2c(c1)OCO2)c1ccc(S(=O)(=O)N2CCCCC2)cc1	-16.8%
O=C(COC(=O)c1ccc(O)cc1)Nc1ccc2[nH]c(=O)[nH]c2c1	2.48%
CNC1=CC(=O)CC(c2ccccc2)C1 (centres unmarked)	-1.58%
CCOC(=O)/C(=C/Nc1ccc(F)c(F)c1)[N+](=O)[O-]	16.1%
CCOc1ccc(/C=N/NC(=O)c2cc3c(OC)cc(OC)c(OC)c3[nH]2)cc1	-16.5%

SMILES	hERG current change (%, negative = inhibition) at 10uM
COCCNC(=O)Cc1ccc(Br)cc1	15%
COCCCn1nnnc1SCC(=O)N1CCCC1	1.47%
Cc1ccc2nc(N3CCOCC3)c(C=O)c(=O)n2c1	10.5%
CCOc1ccc(/C=N/NC(N)=S)cc1	11.6%
CCN(CC)S(=O)(=O)c1cccc(-c2nnc(SCc3nnc(-c4ccccc4)o3)n2C)c1	-67.4%
CCOc1ccccc1NC(=O)Cn1[nH]c(=O)c2ccccc2c1=O	16.3%
N=c1sc2ccccc2n1-c1ccccc1	-27.1%
O=C(NCCC1=CCCCC1)C1CCN(S(=O)(=O)c2ccc(Br)s2)CC1	3.57%
Cc1cccc(NC(=O)CNC(=O)CN2CCN(C)CC2)c1C	7.6%
O=S(=O)(c1ccsc1)N1CC=C(c2ccccc2)CC1	15.7%
COCC(=O)NNC(=O)c1ccccc1OC	15.4%
CSc1ncccc1C(=O)Nc1cccc(S(=O)(=O)N2CCCCC2)c1	-64.3%
N#CC(Sc1ccccn1)c1ccc(Cl)cc1Cl (centres unmarked)	4.76%
CCn1c(O)c(N=Nc2ccc(Cl)c(C(=O)O)c2)c2ccccc21	12.7%
Cn1cc(C(=O)N2CCCCC2)c2ccccc21	4.66%
COc1ccc(NC(=O)CN(C)C(=O)C2CSC3(C)CCC(=O)N23)cc1 (centres unmarked)	2.27%
CS(=O)(=O)c1ccc(Cl)c(NC(=O)CSc2nc3ccccc3c(=O)n2Cc2ccco2)c1	-32.7%
Cc1cccc(C)c1NC(=O)CN(C)CC(=O)Nc1ccccc1Br	-3.22%
Cc1ccc(NC(=S)Nc2ccc(S(=O)(=O)N3CCOCC3)cc2)cc1S(=O)(=O)N1CCOCC1	0.293%
O=C(CN1C(=O)C2C3C=CC(C4CC34)C2C1=O)Nc1cnc2ccccc2c1 (centres unmarked)	-3.67%

SMILES	hERG current change (%, negative = inhibition) at 10uM
COc1cccc(/C=N/NC(=S)NC2CC3CC2C2C=CCC32)c1O (centres unmarked)	12.5%
COc1ccc2c(c1)-c1nc(/N=C/c3ccc(O)cc3)sc1CC2	-0.142%
Cc1ccc(-n2cc(CN3CCC(CO)(Cc4ccccc4)CC3)cn2)cc1	-65.1%
Cc1c(NC(=O)c2cc(-c3ccc(Cl)c(Cl)c3)on2)c(=O)n(-c2ccccc2)n1C	-40.2%
O=C(c1ccco1)N1CCN(Cc2nnnn2C2CCCCC2)CC1	3.3%
CC(=O)Nc1ccc(NC(=O)CSc2nnc(-c3cccs3)n2C)cc1	-7.69%
COc1ccc(C2C(C(=O)N3CCOCC3)=C(C)NC3=C2C(=O)CC(C)(C)C3)c(OC)c1 (centres unmarked)	-3.42%
COc1ccc(C(=O)NC(C)c2cnn(-c3ccccn3)c2C)o1 (centres unmarked)	-11.7%
O=C(N/N=C\c1ccccn1)c1ccccc1O	11%
COc1ccc2nc(SCc3cnc(C)nc3N)[nH]c2c1	-4.7%
c1ccc2[nH]c(CCCc3nc4ccccc4[nH]3)nc2c1	-7.32%
O=c1cc(CCl)nc(Cc2c(Cl)cccc2Cl)[nH]1	20.8%
CC(=O)N1CCN(C(=O)c2ccc(S(=O)(=O)Nc3ccccc3C)cc2)CC1	3.04%
COC(=O)c1oc(-c2ccccc2)nc1C	60.7%
C=CCn1c(-c2ccoc2C)n[nH]c1=S	7.79%
Cc1nc2nc(SCc3ccccc3)[nH]n2c(=O)c1C	9.25%
C/C(=N/NC(=O)C1COc2ccccc2O1)c1ccco1 (centres unmarked)	5.52%
Cc1ccc(NC(=O)c2sc3ccccc3c2Cl)nc1	8.87%
O=C(N/N=C/C(Cl)=C/c1ccccc1)c1ccc2c(c1)OCO2	0.853%
